Laboratory results reported in the supplement of paper PMC3334620.
Over roughly 33,000 sequences, “E-score (-0.5 to 0.5)” has its median near -0.035; the highest 2% begin near 0.34. The list shows a part of the results.

Biological target: T1, Mot3 (UniProt P54785)
T1 sequence: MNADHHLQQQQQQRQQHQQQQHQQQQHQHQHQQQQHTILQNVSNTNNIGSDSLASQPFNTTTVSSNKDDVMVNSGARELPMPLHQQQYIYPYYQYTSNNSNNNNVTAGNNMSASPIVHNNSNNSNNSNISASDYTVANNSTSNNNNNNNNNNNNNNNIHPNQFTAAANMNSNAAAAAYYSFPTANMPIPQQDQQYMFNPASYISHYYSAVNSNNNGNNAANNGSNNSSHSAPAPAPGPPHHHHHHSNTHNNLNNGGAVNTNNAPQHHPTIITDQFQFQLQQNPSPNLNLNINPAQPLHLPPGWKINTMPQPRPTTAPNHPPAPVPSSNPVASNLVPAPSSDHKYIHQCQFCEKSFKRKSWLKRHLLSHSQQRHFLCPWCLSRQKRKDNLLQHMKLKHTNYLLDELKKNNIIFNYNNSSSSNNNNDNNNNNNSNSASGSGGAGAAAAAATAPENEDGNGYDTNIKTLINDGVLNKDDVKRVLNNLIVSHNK
Assay: PBM E-score (8-mer binding enrichment) (E-score (-0.5 to 0.5)); higher = stronger / more preferred TF binding; most listed sequences are background and not binding sites
Settings: protein concentration: 200 nM; construct: GST-full length
In short: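 GST-tagged yeast TFs (full-length or DNA-binding domain) were made by PURExpress in vitro transcription/translation and applied at about 100-200 nM to universal all-10-mer Agilent arrays. The arrays were made double-stranded by primer extension, on fresh or once-stripped slides. Bound protein was detected with fluorescent anti-GST, and scans were normalised with masliner. Each ungapped eight-base word, pooled with its reverse complement, received an E-score (modified Wilcoxon-Mann-Whitney statistic) from the Universal PBM Analysis Suite.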

Row | Sequence | PBM E-score
1 | AGGCCCAC | -0.0299
2 | CGTTCAGC | -0.0729
3 | GAATACGC | 0.275
4 | ACCGTCAA | -0.169
5 | ACTTCCGA | -0.128
6 | CCACCTCC | -0.251
7 | GTGTCCTA | 0.169
8 | GCGAAGAA | -0.0244
9 | CGGAAGCC | -0.237
10 | AGTGGCGA | -0.122
11 | GCAACATA | 0.177
12 | GTGTCTGA | 0.0668
13 | TGACACCA | -0.102
14 | ATTCCACG | -0.116
15 | GCGGAGAC | -0.137
16 | AGCGCGTG | 0.0899
17 | TCGGGTAA | 0.209
18 | CGGCCTGC | -0.212
19 | GCCTAAAC | 0.251
20 | ATGGCCGA | 0.0543
21 | GGCGGCAA | -0.223
22 | AGTAGTGC | -0.0732
23 | ATCAGTTA | 0.1
24 | AGGTGGAT | -0.0952
25 | ACGATGAT | -0.0832

Row | Sequence | PBM E-score
26 | CTTTTCTA | -0.0272
27 | CGATCCAG | -0.148
28 | GTTCGGCA | 0.0214
29 | CTTCTAAA | 0.056
30 | TAGACTGA | -0.0923
31 | CTAAATTC | -0.0876
32 | CGGTTCAC | -0.248
33 | AACGTTAG | 0.0962
34 | GGGTACTA | 0.128
35 | CACTCCTA | -0.0744
36 | TCCGCACA | -0.17
37 | CGTGGCGA | -0.225
38 | ATAAAAAA | 0.105
39 | ATGAGGTA | 0.0008
40 | AAGACGTA | 0.108
41 | AAGCGGAT | -0.0845
42 | GACTAAGA | -0.222
43 | AGCAAGCT | -0.242
44 | AATCAACC | -0.0448
45 | AGAAGTGC | -0.166
46 | AAGGAACC | 0.462
47 | AAAAGTAT | -0.0544
48 | GTGTTCTA | 0.208
49 | ACGGCGTA | 0.231
50 | ATTTGAGA | -0.0132

Row | Sequence | PBM E-score
51 | AACCTCGA | -0.021
52 | CTAAGAGC | -0.197
53 | ACGCTGAG | -0.175
54 | ACTCACCA | -0.0911
55 | TAATGGAA | -0.0062
56 | CGAATCAC | -0.0617
57 | AAAATACC | 0.0313
58 | AAGACCCC | -0.0948
59 | ATCCCGTG | 0.0831
60 | TCCAGGGA | -0.212
61 | CACACTCC | -0.178
62 | ACAGGGCG | 0.0728
63 | AGGAGCTG | -0.172
64 | AAGGGCGA | -0.284
65 | GCTCGGGA | -0.175
66 | CGGGAGAC | -0.155
67 | AACATATC | 0.171
68 | CTGAATGC | -0.169
69 | AGCGCCAG | -0.14
70 | ATCCATTG | -0.135
71 | GGCATGGA | -0.0411
72 | AGCACCCT | -0.214
73 | GTTATGTA | 0.323
74 | ACTCAGGC | 0.241
75 | CCTGTCAA | 0.214

Row | Sequence | PBM E-score
76 | GAACAGTC | -0.172
77 | ATCTTGGC | -0.221
78 | AGAAAGAG | -0.195
79 | CAAACTAG | 0.059
80 | ATGAACAT | 0.252
81 | CAGGATAG | -0.137
82 | AGGTGCCC | 0.295
83 | CCCGTTTC | -0.208
84 | GATACGTA | 0.215
85 | ATGTGTGA | 0.125
86 | ATCTTTCC | 0.0474
87 | AGTGAAAG | -0.0637
88 | CAAGGTCA | -0.0892
89 | ATTCTCGC | -0.24
90 | CCATGCCA | -0.118
91 | AAGTAATC | 0.272
92 | ATTTTAAG | 0.0582
93 | TGATTAAA | -0.0142
94 | ACCGAGAT | -0.131
95 | ACAGGCTA | 0.183
96 | CACTCTCG | 0.0485
97 | CATTTTCG | -0.0345
98 | AAGGGCGT | 0.025
99 | AGGTAACG | 0.266
100 | CTCGGTCC | -0.203

Row | Sequence | PBM E-score
101 | CCAGACAC | -0.206
102 | TCGAATAA | -0.146
103 | CGCCCAAG | -0.105
104 | CATCGCCC | -0.109
105 | CTAAACTA | 0.0503
106 | CGGTTACA | 0.274
107 | CATTACCC | -0.179
108 | CGTGATAG | -0.019
109 | GCCCTGCA | -0.18
110 | AGACGTAA | 0.196
111 | AACCGAAG | 0.163
112 | AAGATACC | 0.0004
113 | CTCCTGAA | -0.261
114 | CGGCTGTA | -0.144
115 | GGATAGAA | -0.0162
116 | GCTAGACA | -0.027
117 | CCTGCGAG | 0.038
118 | TCCGGGAA | -0.0682
119 | CAGAGATC | -0.254
120 | TAGGCACA | 0.491
121 | GTGATTTA | 0.118
122 | CCCTTGTA | 0.237
123 | AGACGACG | -0.14
124 | ATCCAGTA | 0.0712
125 | GCATGCCC | 0.0143

Row | Sequence | PBM E-score
126 | AAAAGGAG | 0.0569
127 | GGGTTGAC | -0.176
128 | AATCGTGG | 0.202
129 | CCCTCACG | -0.33
130 | AATTTTTG | 0.149
131 | CTCCGAAG | -0.108
132 | AACGGCAC | 0.11
133 | CAGAAATA | 0.0466
134 | ATCATCGC | 0.0609
135 | CCTTTGTC | 0.106
136 | CTACAGAA | 0.00386
137 | GAGCTCGA | -0.178
138 | ATGCCCTC | -0.0364
139 | CCTACAGC | 0.0548
140 | TCTAACCA | 0.168
141 | CGGCCGGA | -0.264
142 | CCGCTTAG | -0.211
143 | CCCACAGG | 0.0332
144 | AAACATTA | 0.153
145 | AAGTCAAA | 0.0254
146 | TGAGGACA | 0.0577
147 | AAGCACGG | 0.0983
148 | GCTCGCAC | -0.225
149 | ATCAAGGG | -0.0363
150 | AAATATGG | -0.0451

Row | Sequence | PBM E-score
151 | CTTGGGCC | -0.177
152 | ACGACGAT | -0.117
153 | CGAGCACC | -0.189
154 | CAGGATTA | 0.0583
155 | GTATCAAC | 0.0054
156 | CTTGTCGC | -0.0367
157 | TATCGAAA | 0.0403
158 | TACGCATA | 0.273
159 | AGGGAACA | 0.0413
160 | AACTAAAG | 0.256
161 | ACTGAGAT | -0.0195
162 | GCGATCCC | -0.114
163 | GCGCCCGC | -0.199
164 | CATCGGTC | -0.13
165 | CCAGCGCG | -0.0524
166 | GCAAGAAC | 0.189
167 | TCAATTGA | -0.0515
168 | GCCCATCA | -0.183
169 | AGACCTTC | -0.139
170 | CCTGACTC | -0.15
171 | CAGAGATG | 0.0978
172 | CATCTTCA | -0.192
